Results taken from the supplement of paper PMC4723716.
In all, about 3,600 compounds were measured (“viability index relative to DMSO control”: median about 0.81, lowest 2% from about 0.13 on). The list shows a part of the results.

Test system: Plasmodium falciparum NF54 stage V gametocytes
Test: viability index relative to DMSO control (fraction); higher = less gametocyte killing
Conditions: 1.25 µM, incubation time: 72 h
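Further: 384-well serum-free SaLSSA: MitoTracker Red CMXRos staining with saponin lysis, high-content imaging, treated-well particle count divided by plate-mean count of DMSO wells.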

SMILES	viability index
CC(C)CN1C(=O)c2ccccc2C(C(=O)Nc2ccc(C(C)C)cc2)C1c1cccs1 (configuration not stated)	0.281
CCOC(=O)C(=CNc1ccc(I)cn1)C(=O)OCC	0.583
COc1ccc2c(ccc(C=C3C=CC=CN3C)[n+]2C)c1	0.873
CCCCCCCCCn1c2c(c(=N)c3c1CCC3)CCCC2	0.345
Cc1ccc(-n2c(C)cc(C=C3SC(=Nc4ccc(Cl)cc4)NC3=O)c2C)cc1	0.589
Cn1nc(C(=O)N2CCc3ccccc3C2)c2c1CCC(N1CCN(Cc3cccc(F)c3)CC1)C2 (configuration not stated)	1.35
C=C(C)CSc1nc(N)c2c3c(sc2n1)CN(CCC)CC3	1.03
CCOC(=O)c1sc(NC(=O)C(C)Sc2nnc(CNC(=O)c3cccc(F)c3)n2-c2cccc(C)c2)c(C(=O)OCC)c1C (configuration not stated)	0.917
COc1ccccc1CNC(=O)C1c2ccccc2C(=O)N2CCc3ccccc3C12 (configuration not stated)	0.827
O=C(COC(=O)c1ccc2c(c1)C(=O)N(c1ccc3ccccc3c1)C2=O)c1ccc(Br)cc1	0.793
Cc1sc2c(c1C)CN(Cc1ccco1)CN2C(=O)c1ccco1	0.736
COc1ccc2nc(C)cc(Nc3ccc(N4CCN(C)CC4)cc3)c2c1	0.873
Cc1ccc(C(=O)NNc2nc(Nc3ccccc3)nc(N3CCCC3)n2)cc1	0.679
Cc1nc2ncccn2c1-c1csc(Nc2ccccn2)n1	1.06
C#CCNC(=O)c1ccc(OC2CCN(CC3CCCCC3)CC2)c(Cl)c1	0.774
Cc1cccc2cc(C(c3nnnn3C3CCCC3)N3CCCC4(CCCCC4)C3)c(=O)[nH]c12 (configuration not stated)	1.19
Cc1cccc(-c2cc3nc(C)c(C)c(O)n3n2)c1	0.776
COc1ccc(C=CC(=O)NC(=O)c2ccccc2O)cc1	0.788
COc1ccc(C2CC(=O)C3=C(C2)NC(C)=C(C(=O)OC2CCCC2)C3c2ccccc2F)cc1OC (configuration not stated)	0.548
OCCNc1nc(Nc2ccccc2O)nc2ccccc12	1.07
COc1ccccc1-c1nnc(Nc2nc3cc4c(cc3s2)OCO4)o1	0.719
CC1CCCCN1CCCNCc1ccc(OCc2ccccc2)cc1 (configuration not stated)	0.699
CCOC(=O)C1=CN(C)C=C(C(=O)OCC)C1c1cc(Br)c(OCC)c(OC)c1	0.651

SMILES	viability index
CCOc1nc2c(c(=O)n(C)c(=O)n2C)n1Cc1cccc(Br)c1	1.03
Cc1cc(Nc2ccccc2)nc(Nc2ccccc2)n1	0.538
Cc1ccccc1C=NNc1nc2ccccc2[nH]1	0.83
Cc1cccc(NC(=O)CCCn2c(=O)c3cccn3c3ccccc32)c1C	0.341
COc1ccc(OC)c(C2C3=C(CC(C)(C)CC3=O)N(c3ccc(Cl)c(Cl)c3)C3=C2C(=O)CC(C)(C)C3)c1	0.498
CCOC(=O)NN=C(C)c1ccc(C(C)=NNC(=O)OCC)cc1	0.768
COc1cc2nc(Nc3cccc(F)c3)nc(N)c2cc1OC	0.585
COc1ccc(C2=C(c3ccc(OC)cc3)C3(c4ccccc4)C(=O)C2(c2ccccc2)C2C(=O)N(c4ccccc4)C(=O)C23)cc1 (configuration not stated)	1.34
FC(F)(F)c1ccccc1NC(=S)N1CCCN(c2nc3ccc(Cl)cc3s2)CC1	0.722
CCn1ccccc1=Nc1cccc[n+]1CC	0.771
COc1cc(OC)cc(C(=O)N2CCN(Cc3cccc(Br)c3)CC2)c1	0.97
CN(C)c1ccc(Nc2nc(NCC3CCCO3)c3ccccc3n2)cc1 (configuration not stated)	0.853
CCOC(=O)C1CCN(C(=S)Nc2ccc3nsnc3c2)CC1	1.08
COc1ccc(C2C(C(=O)Nc3cccc(OC)c3)c3ccccc3C(=O)N2C2CCCCC2)cc1 (configuration not stated)	0.831
CCN(c1ccc(F)cc1)S(=O)(=O)c1ccc2[nH]cc(C(=O)NC(C)(C)C)c(=O)c2c1	0.95
O=C(Cc1ccccc1)NC(c1ccc(Cl)cc1)c1ccc2cccnc2c1O (configuration not stated)	0.755
Nc1c(C(=O)NCc2ccccc2)nnn1Cc1ccc(F)cc1Cl	0.819
C=CCn1nc(C(=O)N2CCCC2)c2c1CCC(N1CCCCCC1)C2 (configuration not stated)	0.942
CC(=O)c1ccc(-n2cc(C(=O)C(C)Oc3ccc(Cl)cc3Cl)nn2)cc1 (configuration not stated)	1.2
O=C(NCc1ccccc1C(F)(F)F)C1CC(O)CN1C(=O)Nc1ccccc1 (configuration not stated)	0.964
CCN(CC)CCN(Cc1cc2cc(OC)ccc2[nH]c1=O)C(=S)Nc1ccc(F)cc1	0.674
CC(=O)N1c2ccccc2CC1C(=O)NCc1cccc(Cl)c1 (configuration not stated)	1.02
COc1ccccc1C1CC(=O)N2CN(Cc3ccccc3)CSC2=C1C#N (configuration not stated)	0.815

SMILES	viability index
COc1ccccc1C(c1nnnn1Cc1ccc(F)cc1)N1CCN(C)CC1 (configuration not stated)	1.01
O=C(Cc1ccsc1)N1CCOc2c(cc(-c3csc4ccccc34)cc2OCCc2ccccn2)C1	0.394
Cc1ccc(Cl)cc1N1CCN(S(=O)(=O)c2ccc3c(c2)oc(=O)n3C)CC1	1.07
COC(=O)c1sc2nc(CN3CCC(C)CC3)ccc2c1NC(=O)c1ccc(C)s1	0.981
O=C(CCl)NCCNc1ncc(C(F)(F)F)cc1Cl	0.564
COc1ccc(-c2c[n+](Cc3ccccc3Cl)c3n2CCC3)cc1	0.857
CCN1C(=O)N(CC)C(NNC(N)=S)C1NNC(N)=S (configuration not stated)	0.173
CN(C)c1ccc(-c2n(C)c3ccccc3[n+]2C)cc1	1.05
CC(C)CN1C(=O)c2ccccc2C(C(=O)Nc2ccccn2)C1c1cccs1 (configuration not stated)	0.534
CC[N+]1(CCOc2ccc(C34CC5CC(CC(C5)C3)C4)cc2)CCCCC1	0.601
O=[N+]([O-])c1ccc(NCCNc2nc(N3CCCC3)nc3ccccc23)cc1	0.776
COc1ccc(NC(=O)C2c3ccccc3C(=O)N(CC(C)C)C2c2cccs2)cc1Cl (configuration not stated)	0.104
O=C(C=Cc1ccccc1Cl)Nc1ccc(Oc2ccc3ccccc3c2Cl)c(Cl)c1	0.763
Cc1nc(-c2ccccc2)nc(C(=O)N2CCN(C(=O)NC3CCCCC3)C(C)C2)c1C(=O)OC(C)C (configuration not stated)	0.488
COc1ccc(C(=O)NC(c2ccc(C)cc2)c2cc(Cl)c3cccnc3c2O)cc1 (configuration not stated)	0.726
CCCNC(=O)N1CCC2(CC1)CC(=O)c1cc(C)ccc1O2	0.929
CC(=O)CSc1nnc(-c2ccncc2)n1C	0.717
Cc1ccc(NC(C)C(=O)Nc2ccc(C#N)cc2)cc1S(=O)(=O)N1CCCCC1 (configuration not stated)	1.21
COc1ccc(-n2nc(C(=O)NCC(=O)NCCCN3CC(C)CC(C)C3)c3ccccc3c2=O)cc1Cl (configuration not stated)	0.988
CCOc1ccccc1-n1c(N)c(C(=O)Nc2ccc(C)cc2)sc1=S	1.3
Cc1n[nH]c2c1C(c1ccc([N+](=O)[O-])cc1)N(c1ccc(Br)cc1)C2=O (configuration not stated)	1.11
c1ccc(-c2nn(-c3ccccc3)[n+](-c3ccccc3)n2)cc1	0.471
COc1cnc(-c2ccccn2)nc1N1CCCC1	0.0429

SMILES	viability index
CCOc1cc(Br)cc(C=C2NC(=S)NC2=O)c1O	0.789
CN1C(=O)N(C)C(NNC(N)=S)C1NNC(N)=S (configuration not stated)	0.144
CCOc1ccc(Nc2nc(NCc3ccccc3)c3ccccc3n2)cc1	0.973
COc1ccc(-c2cc(C(F)(F)F)n3nc(C(=O)NC4CCCCC4)c(Cl)c3n2)cc1OC	1.22
c1ccc(Cn2c(N=Nc3c(Nc4ccccc4)ccc4ccccc34)nc3ccccc32)cc1	0.714
Nc1nonc1-n1nnc(C(=O)NN=Cc2cc(Br)cs2)c1-c1ccccc1	0.657
Cc1c(Cl)cccc1N1C(=O)C2C3c4ccccc4C(c4ccccc43)C2C1=O (configuration not stated)	1.22
O=C(NC1CCN(Cc2ccccc2)CC1)[C@@H](c1ccccc1)N1Cc2ccccc2C1=O	0.916
Cc1cc(N2CCN(c3ccccn3)CC2)n2c(nc3ccccc32)c1C#N	0.775
COc1ccc(CN2CCN(C(=O)c3cccnc3)CC2)cc1OC	1.03
Cc1cc(NC2CCCCC2)nc(NCc2ccccc2)n1	0.629
Cc1ccc2cc3c(N)c4c(C)ccc(C)c4nc3nc2c1	0.667
CCOC(=O)c1c(N=Cc2cccc(OC)c2O)sc2c1CCN(C)C2	0.649
CN(Cc1cc(-c2ccc(F)cc2)ccc1O)CC(O)c1ccccc1 (configuration not stated)	0.933
CCCn1c(SCC(=O)N2c3ccccc3CC2C)nc2c1c(=O)n(C)c(=O)n2C (configuration not stated)	0.896
Cc1ccc(Cl)cc1Nc1nc2ccccc2n2c(C)nnc12	0.739
CCOc1ccc(Nc2cc(C)nc(Nc3ccc(OCC)cc3)n2)cc1	0.667
CCNc1nc(NC(C)(C)C)nc(N2CCCC2)n1	0.819
CC1(C)N=C(N)N=C(N)N1c1ccc(Oc2ccc(Cl)cc2)c(Cl)c1	0.576
CCOC(=O)c1c(C)[n+](-c2ccc(C)cc2)c(CC)c2cc(OC)c(OC)cc12	0.717
O=C(Nc1ccc(Cl)cc1Cl)c1ccc(-c2nc(-c3ccccc3Cl)cs2)cc1	1.04
Cc1cccc(-n2ccnc2SCC(=O)Nc2cc(C(F)(F)F)ccc2Cl)c1	1.01
CC1=CC(=C(C#N)c2nc3ccccc3s2)C=C(C)N1c1ccc2c(c1)OCO2	1.02
